According to PubChem BioAssay AID1508624 (National Center for Advancing Translational Sciences (NCATS), 2021):
The whole screen tested about 48,000 compounds, of which about 120 (0.25%) were called active. Inconclusive results (about 4%) are left out. The call rests on the fitted dose curve; in most records, active means well fitted activation curve with a large enough effect; inconclusive means small, poorly fitted or top-dose-only effect, or another doubt; inactive means no such curve, though single readings can be large or run the other way. The list shows a part of the results.

experiment: Primary qHTS for Identification of Small Molecule Activators of Huntingtin-Antisense Promoter Activity; conditions: HEK293 HTT-AS promoter firefly luciferase reporter, 24 h; series mostly up to 57.5 µM; activity change, positive = activation: at the top concentration; further: nearly all actives have a fitted effect of over 55% in size
Method in brief: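 HEK293 Fluc reporter, 2,500 cells/well, 24 h pre-culture; cpds up to 57.5 uM final, 24 h 37 degrees C; Dual-Glo, 10 min RT; normalized vehicle = 0%, zero RLU = -100%.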

Activity change, positive = activation, inactive:
Cc1ccc(NS(=O)(=O)c2c(C)nc3sc(C)c(C)n3c2=O)cc1F -37.3%
Cc1ccc2c(c1)-c1c(cnc3cc(-c4ccc(Cl)cc4)nn13)CO2 4.25%
Cc1ccc2onc(CNC(=O)N3CCN(c4cc(Cl)ccc4C)CC3)c2c1 -34.1%
CC(CNC(=O)c1cc2cc(S(=O)(=O)N3CCCCC3)ccc2n1C)c1ccccc1 (stereo not given) -39.5%
Cc1ccc(CCNC(=O)c2sc3nc4n(c(=O)c3c2C)CCCC4)cc1 -16.6%
COc1ccccc1CNC(=O)c1ccc2c(c1)nc(C)n2-c1cccc(C)c1 -14.5%
COc1ccc(C(C)=O)cc1CSc1nc(NCc2ccccc2)c2ccccc2n1 -37%
O=C(O)c1ccc(OCCCOc2ccc(C(=O)O)cc2)cc1 2.31%
COc1ccc(NC(=O)C(C)N2Cc3ccccc3C2=O)cc1OC (stereo not given) -9.88%
Cc1ccc2c(c1)c(=O)c1ccccc1n2CCCC(=O)Nc1ccc(C)c(C)c1 -46.5%
CC(C)OC(=O)c1ccc(NC(=O)CSc2nc(-c3cccs3)cc(C(F)(F)F)n2)cc1 -29.9%
Cc1ccc(COC(=O)c2[nH]c3c(c2C)C(=O)CC(c2ccc(Cl)cc2)C3)cc1 (stereo not given) -3.35%
Cc1cccc(CN2C(=O)c3ccccc3S(=O)(=O)c3ccc(C(=O)OCC4CCCO4)cc32)c1 (stereo not given) -6.81%
CCc1ccc(CNC(=O)C2COc3ccccc3C2)cc1 (stereo not given) 9.83%
CCOC(=O)c1cc(S(=O)(=O)N2CCN(c3ccccc3OC)CC2)[nH]n1 -4.75%
Cc1ccc(N2CC(NC(=O)C3CCCCC3)CC2=O)cc1 (stereo not given) -15.2%
COc1ccc(NC(=O)CSCc2cc(=O)c3cc(Cl)ccc3[nH]2)cc1 -18.9%
CCc1ccc(C(=O)c2cn(CC(=O)Nc3ccc(F)cc3)c3ccc(F)cc3c2=O)cc1 -29.8%
CCn1c(CNC(=O)c2ccc(OC)cc2)nnc1SCC(=O)Nc1ccc(F)cc1 -5.2%
CCOc1ccc(C2CC(=O)Nc3c2c(=O)[nH]c2ncnn32)cc1 (stereo not given) -13.5%
Cc1cccc(C(=O)Nc2cc(-c3ccccc3F)nn2-c2ccccc2)c1 -12.4%
Cc1cccc(C)c1NC(=O)CC12CCCN1CCC2 -4.04%
COc1cc(NS(=O)(=O)c2cc3[nH]c(=O)[nH]c3cc2C)cc(OC)c1OC -0.586%
NC(=O)c1ccc(-c2nc(-c3ccc4c(c3)OCCO4)c(-c3ccccn3)[nH]2)cc1 -14.9%
O=C(Nc1cccc(NC(=O)c2ccc(Br)cc2)c1)c1ccccc1 -3.08%
CCCn1c(NCc2ccccc2F)nc2ccccc21 8.26%
COc1ccc2c(c1)CC(NC(=O)Nc1ccc(Br)c(C)c1)CO2 (stereo not given) -7.52%
CCC(=O)N1c2ccc(S(=O)(=O)CCC(=O)N3CCN(c4ccc(F)cc4)CC3)cc2CC1C (stereo not given) -25.2%
COc1ccc(-c2nnc(SCC(=O)Oc3cc(C)ccc3C)o2)cc1 -24.7%
CCOC(=O)c1cc2c(=O)n3ccccc3nc2n(CC2CCCO2)c1=NC(=O)c1ccc(F)cc1 (stereo not given) 0%
O=C(NCc1cccc(F)c1)c1ccc2nc(CCc3ccccc3)oc2c1 23.7%
CCCCCNC(=O)c1ccc2c(=O)n(CCc3ccccc3)c(=O)[nH]c2c1 3.54%
CCOC(=O)N1CCc2c(sc(NCc3cccc(F)c3)c2C(=O)Nc2ccc(OCC)cc2)C1 8.15%
CCN(C(=O)c1cccn(Cc2cccc(Cl)c2)c1=O)c1ccccc1 -12.5%
Cc1ccc(-c2nc(Cn3c(SCc4ccc(F)cc4)nc4cccnc43)c(C)o2)cc1 -35.8%
COc1cc(C(=O)NC2CCN(C)CC2)ccc1Nc1ncc2c(n1)N(C1CCCC1)CCC(=O)N2C(C)C -24.4%
COc1ccc(C(=O)Nc2nonc2-c2ccc(OC)c(OC)c2)cc1Cl -37.1%
CCOc1ccc(NC(=O)c2ccc3nc(C(C)C)oc3c2)cc1 -21.4%
COc1ccc(Cn2c(C(=O)O)c(CNCc3ccc(C)o3)c3ccc(OC)cc32)cc1 -22.2%
CCc1cccc(NC(=O)Cn2nc(C)c3sc4ccccc4c3c2=O)c1 13.7%
Cc1ccc(C)c(CN2C(=O)CSc3ccc(C(=O)NCc4ccccc4)cc32)c1 -28.9%
COc1ccccc1OC(C)C(=O)N1CCC(c2nc3ccccc3s2)CC1 (stereo not given) -16.9%
COc1ccc(Cn2c(=O)c3ccccc3n3c(-c4ccc(C)cc4)nnc23)cc1 17.7%
Cc1ccc(OCc2cc(=O)n3cc(C)sc3n2)c(NC(=O)c2ccco2)c1 -12.2%
CC(C)c1cc2c(cc1S(=O)(=O)O)[C@@]1(C)CCC[C@@](C)(C(=O)O)[C@@H]1CC2 -1.01%
Cc1ccc(C)c(NC(=O)Cn2cc(S(=O)(=O)NC(C)C)c(S(=O)(=O)NC(C)C)c2)c1 -4.74%
COc1cc(C(=O)Nc2c(C(=O)Nc3ccccc3F)oc3ccccc23)cc(OC)c1OC -16.1%
CCOC(=O)c1c(-c2ccccc2)oc2cc(Br)c(OCc3ccccc3)cc12 -12.8%
Cc1ccc(OCCCCn2nnc3sc4c(c3c2=O)CCC(C)C4)cc1 (stereo not given) -12.3%
CCn1c(=N)c(C(=O)NC2CCCC2)cc2c(=O)n3cc(C)ccc3nc21 -13.6%
Cc1ccc(NC(=O)C2CCCN(S(=O)(=O)c3cccc4nsnc34)C2)c(C)c1 (stereo not given) -13.7%
CCN(CC)S(=O)(=O)c1ccc2c(c1)N(CC(=O)NCCCN1CCN(c3cc(C)ccc3C)CC1)C(=O)CO2 -32.8%
CCOc1ccc(C(=O)NCCc2csc(-c3cccnc3)n2)cc1 -2.44%
Cc1ccc(Cl)cc1Nc1nn2c(=O)c3ccc(C(=O)NC4CCC(C)CC4)cc3nc2s1 (stereo not given) -12.3%
CN1CCN(C2(CNC(=O)COc3ccc(C(C)(C)C)cc3)CCCCC2)CC1 -23.1%
O=C(Cn1c(=O)n(-c2ccc(F)c(Cl)c2)c(=O)c2sc3ccccc3c21)NC1CCCCC1 0.53%
CC(C)c1ccc(CNCCSc2nnnn2-c2ccccc2)cc1 5.88%
CCNC(=O)C1CCCN(c2nn3cc(-c4ccc(C)cc4)nc3s2)C1 (stereo not given) -69.4%
CCC(C)S(=O)(=O)c1oc(-c2ccc(F)cc2)nc1S(=O)(=O)c1ccc(F)cc1 (stereo not given) -94.5%
CCc1ccc(NC(=O)Cn2c(=O)n(CCC(=O)NCCc3ccc(OC)c(OC)c3)c(=O)c3ccccc32)cc1 -14.7%
Cc1cc(C)cc(NC(=O)C2CCN(c3nc4ccccc4nc3C(F)(F)F)CC2)c1 -1.71%
CCOc1ccc(-n2nc3ccc(NC(=O)COc4ccccc4)cc3n2)cc1 -42.5%
CN(C)C(=O)C(CCN1CCC(O)(c2ccc(Cl)cc2)CC1)(c1ccccc1)c1ccccc1
CC(=O)c1ccc(S(=O)(=O)N2CCn3cccc3C2c2ccc(F)c(F)c2)cc1 (stereo not given) -39.7%
CCc1cc(C(=O)NCc2ccc(F)cc2)no1 3.28% [at 11.5 µM, percent change from vehicle, -100% = no light]
CN[C@H]1[C@@H](O)[C@@H]2O[C@@H]3O[C@H](C)CC(=O)[C@]3(O)O[C@@H]2[C@@H](NC)[C@H]1O -93.5%
COc1ccc(CNc2ncnc3c2c(-c2ccccc2)cn3-c2cccc(C)c2)cc1 -28.8%
CC(C)Oc1ccc(CNC(=O)c2ccc3c(c2)N(C)C(=O)C2CCCCN32)cc1 (stereo not given) -16.4%
Cc1ccc(N2CC(NC(=O)C3CCCC3)CC2=O)cc1C (stereo not given) -11.3%
O=C(COc1ccccc1Cl)Nc1nc(-c2ccc(F)cc2)ns1 -18.4%
COc1cccc(NC(=O)C2CCN(S(=O)(=O)c3c(C)noc3/C=C/c3cccs3)CC2)c1 -37.2%
CCN1CCN(c2cc(C)c3cc(NC(=O)/C=C/c4ccc(OCCC(C)C)cc4)ccc3n2)CC1 -12%
Cc1ccc(NC(=O)CSc2nc(C3CCCC3)nc3c2c(=O)n(C)c(=O)n3C)c(C)c1 -5.1%
CCc1nnc(SCc2nc(-c3cccc(C)c3)oc2C)c2cc3sc(C)cc3n12 -0.0786%
O=C(CSc1nccn1-c1ccc(F)cc1)Nc1cccc2ccccc12 -9.33%
COc1ccc(C(=O)Nc2cc(NC(=O)c3ccco3)ccc2OC)cc1Cl -2.7%
CCOc1ccc(NCc2cccn2-c2nnc(N3CCC(C(=O)NCCOC)CC3)s2)cc1 -18.2%
C=C(C)Cn1c(=O)c2c(nc3n2CCN3c2ccc(F)cc2)n(C)c1=O -8.15%
Cc1cc(=O)n2nc(N3CCC(C(=O)NCc4ccc(F)cc4)CC3)sc2n1 -13.6%
COc1ccccc1/C=C/c1nc(C#N)c(NCCc2ccccc2)o1 7.6%
CCOc1ccc(-c2nc(Cn3ccn4nc(-c5ccc(OCC)c(Cl)c5)cc4c3=O)c(C)o2)cc1 -0.31%
Cc1ccccc1Nc1cc(C(=O)NCc2cccs2)c2ccccc2n1 -1.58%
COc1ccc(C)cc1N(C)C(=O)c1c2c(nc3ccccc13)C(=O)N(C1CCCCC1)C2 -17.3%
CCOc1ccc(N(CC)S(=O)(=O)N2CCCC(C(=O)Nc3cc(Cl)ccc3OC)C2)cc1 (stereo not given) -22.6%
Cc1cccc(OCCn2c(SCC(=O)O)nc3ccccc32)c1 -10.4%
COc1ccc(CNS(=O)(=O)c2ccc(-c3cnc(C4CC4)o3)cc2)cc1 -22.1%
COc1ccc(Nc2ncc(C(=O)N3CCN(c4ccc(F)cc4)CC3)c3ccccc23)cc1 -33.5%
O=C(CN1C(=O)CCc2cc(S(=O)(=O)N3CCOCC3)ccc21)Nc1cccc(C(F)(F)F)c1 -26.8%
Cc1ccc2c(=O)cc(C(=O)Nc3sc4c(c3C(=O)NCc3ccccc3)CCCC4)oc2c1C 8.41%
CCCCCCOc1ccc(C2C(=O)N(C3CCCCC3)CC(=O)N2CCCC)cc1 (stereo not given) -16.1%
O=C(Nc1sc2c(c1C(=O)N1CCCCC1)CCCC2)c1ccccc1Cl -18.7%
Cc1noc(Cn2c(=O)c3cc4c(cc3n(CC(=O)Nc3ccccc3Br)c2=O)OCO4)n1 -20.4%
COc1ccc(NC(=O)CNC(=O)Cn2c(C)cc3ccccc3c2=O)cc1OC -27.6%
CCCCN1C(C(=O)c2ccccc2)=C(OC(C)=O)c2ccccc2S1(=O)=O -48%
CN(C)c1ccc(CNC(=O)CCS(=O)(=O)c2ccc3c(c2)oc(=O)n3C)cc1 16.9% [at 11.5 µM, percent change from vehicle, -100% = no light]
